In the supplement of paper PMC4466236:
Over roughly 33,000 sequences, “E-score (dimensionless, -0.5 to 0.5)” has its median near -0.058; the highest 2% begin near 0.35. The list shows a part of the results.

Test system: MvaT
Assay: PBM 8-mer E-score (mean of HK and ME arrays) (E-score (dimensionless, -0.5 to 0.5)); higher = stronger relative binding preference; most listed sequences are background and not binding sites
Method: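 Protein binding microarray: GST-tagged full-length MvaT (P. aeruginosa PAO1) bound to two universal double-stranded 60-mer arrays (ME and HK), each with a constant 25-mer primer and a variable 35-mer region covering all 8-mers. The 8-mer E-score (rank-based, range -0.5 to 0.5, >0.45 = specific binding) is the mean of the two arrays.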

Sequence | PBM 8-mer E-score
CTGGGTCA | -0.238
TATAGATA | 0.27
ATGGACTC | -0.266
ATTGTAAA | 0.28
ATTCAACG | 0.0307
ACCTATAC | 0.0839
CTGATAAG | 0.013
CAATTAGC | -0.00502
CCGTCATA | 0.0748
ACACTTTA | 0.269
ACCAATCA | 0.0313
GTCTTTCA | 0.0345
ACAGACAT | 0.058
ACGTTTGC | -0.103
TACCATGA | 0.0348
AGGGCCCG | -0.227
ACTTGTCT | 0.00162
ATTCTCCA | 0.0681
AGACGGGA | -0.0586
CCCCCACA | -0.214
CCACGCCC | -0.228
ACGTCGAT | -0.00787
ACTAACTC | 0.118
ACATAAAA | 0.23

Sequence | PBM 8-mer E-score
AAATCAGA | -0.0536
CCCCGGAA | -0.27
CAACCTGG | -0.176
CTGCCGAC | -0.236
GATAGTAC | 0.106
ATCTTTCG | -0.00784
AACAGTGG | 0.0654
CCTACCCC | -0.222
ACGGTGAC | -0.147
ATCGACAC | -0.0169
CTTCACAA | 0.027
ACAATGAG | 0.059
CCACGCTC | -0.161
ACCGGGGC | -0.224
CACGGTGG | -0.225
GCGAAGTA | 0.0165
ATTCGCTG | 0.0455
AACCGCTT | -0.0683
ATCGGGAG | -0.073
GACCGCGC | -0.287
CGAGAAAC | 0.0349
AAGCGGAC | -0.0883
GCCCTTCC | -0.259
CAATTTGC | 0.0611

Sequence | PBM 8-mer E-score
AAGCGTTA | 0.0994
ATTTAGAG | 0.0449
ACCTCAGT | -0.232
AGTGAGTC | -0.0914
AACTGTCT | 0.0705
CCGTTTAG | -0.00254
ATGGTGGA | -0.0135
CCTCAAAG | -0.0534
AGCAGTGA | -0.151
AGGGTCGA | -0.0855
GCTGGTCA | -0.205
ATATGCAG | 0.239
ACGCTAAC | 0.0546
GCGACCGC | -0.253
ATGCCGGC | -0.0385
GTGCTGGA | -0.194
CTAGATGA | -0.0874
CAGGCACA | -0.208
AGAGGTGC | -0.151
GAGGTTTA | -0.0268
GTAATAAC | 0.297
CCTGTGGA | -0.211
GCAAGATA | 0.156
AAGGAAGC | -0.151

Sequence | PBM 8-mer E-score
TAGAACCA | -0.0287
GTAGCAGA | 0.0283
CCCCCAAC | -0.358
ACCCCGCG | -0.175
ATCGGACC | -0.293
GACGCCAC | -0.14
CCCGCAGG | -0.303
TAGTACAA | 0.257
CCCGTGAG | -0.219
AAAAGCCA | -0.0988
CATCGGGG | -0.289
AAAGGCTG | -0.182
CGCACTTA | 0.0984
TCGGTACA | 0.0367
ACGTCAGG | -0.111
CACTTCTA | -0.0382
CTGATCAC | -0.174
AAGAACGA | -0.0544
GCTTGGTA | -0.156
AGGTCCTA | -0.0966
GGATGGGA | -0.168
CATGGTAC | -0.115
